First the molecules themselves.
B1: GPR68, Q15743 (parent)
chain: MGNITADNSSMSCTIDHTIHQTLAPVVYVTVLVVGFPANCLSLYFGYLQIKARNELGVYLCNLTVADLFYICSLPFWLQYVLQHDNWSHGDLSCQVCGILLYENIYISVGFLCCISVDRYLAVAHPFRFHQFRTLKAAVGVSVVIWAKELLTSIYFLMHEEVIEDENQHRVCFEHYPIQAWQRAINYYRFLVGFLFPICLLLASYQGILRAVRRSHGTQKSRKDQIQRLVLSTVVIFLACFLPYHVLLLVRSVWEASCDFAKGVFNAYHFSLLLTSFNCVADPVLYCFVSETTHRDLARLRGACLAFLTCSRTGRAREAYPLGAPEASGKSGAQGEEPELLTKLHPAFQTPNSPGSGGFPTGRLA

Scores whose standard error is large were omitted. The source holds two more conditions with little spread; they are left out. In variant names, del marks residues removed and ins residues inserted between the two positions. For part of these data: How much ogerin was present is not stated here.

The variants in data set [1] derive from B1. Nature of the data set: cAMP reporter score (Enrich2 score, wild type = 0); higher = more signal; HEK293T, FACS bins.
The variants in data set [2] derive from B1. Kind of data set: surface expression score (Enrich2 score, wild type = 0); higher = more signal; HEK293T, FACS bins.

This is an account of results in the GPR68 mutational scans of Howard et al. (2025).

Regarding MGNITADNSSMSCTIDHTIHQTLAPVVYVTVLVVGFPANCLSLYFGYLQIKARNELGVYLCNLTVADLFYICSLPFWLQYVLQHDNWSHGDLSCQVCGILLYENIYISVGFLCCISVDRYLAVAHPFRFHQFRTLKAAVGVSVVIWAKELLTSIYFLMHEEVIEDENQHRVCFEHYPIQAWQRAINYYRFLVGFLFPICLLLASYQGILRAVRRSHGTQKSRKDQIQRLVLSTVVIFLACFLPYHVLLLVRSVWEASCPFAKGVFNAYHFSLLLTSFNCVADPVLYCFVSETTHRDLARLRGACLAFLTCSRTGRAREAYPLGAPEASGKSGAQGEEPELLTKLHPAFQTPNSPGSGGFPTGRLA [D259P], the cAMP reporter score in data set [1] (pH 5.5) is 0.779; in data set [1] (pH 6), -0.38; in data set [1] (pH 6, modulator: ogerin) it was 0.933; in data set [1] (pH 6.5, modulator: ogerin) it was -0.043. In addition, the surface expression score in data set [2] was determined as 0.773.
As to MGNITADNSSMSCTIDHTIHQTLAPVVYVTVLVVGFPANCLSLYFGYLQIKARNELGVYLCNLTVADLFYICSLPFWLQYVLQHDNWSHGDLSCQVCGILLYENIYISVGFLCCISVDRYLAVAHPFRFHQFRTLKAAVGVSVVIWAKELLTSIYFLMHEEVIEDENQHRVCFEHYPIQAWQRAINYYRFLVGFLFPICLLLASYQGILRAVRRSHGTQKSRKDQIQRLVLSTVVIFLACFLPYHVLLLVRSVWEASCSFAKGVFNAYHFSLLLTSFNCVADPVLYCFVSETTHRDLARLRGACLAFLTCSRTGRAREAYPLGAPEASGKSGAQGEEPELLTKLHPAFQTPNSPGSGGFPTGRLA [D259S], the cAMP reporter score in data set [1] (pH 5.5) is -0.201; in data set [1] (pH 6, modulator: ogerin), 0.563. Besides, the surface expression score in data set [2] was determined as 0.174.
MGNITADNSSMSCTIDHTIHQTLAPVVYVTVLVVGFPANCLSLYFGYLQIKARNELGVYLCNLTVADLFYICSLPFWLQYVLQHDNWSHGDLSCQVCGILLYENIYISVGFLCCISVDRYLAVAHPFRFHQFRTLKAAVGVSVVIWAKELLTSIYFLMHEEVIEDENQHRVCFEHYPIQAWQRAINYYRFLVGFLFPICLLLASYQGILRAVRRSHGTQKSRKDQIQRLVLSTVVIFLACFLPYHVLLLVRSVWEASCRFAKGVFNAYHFSLLLTSFNCVADPVLYCFVSETTHRDLARLRGACLAFLTCSRTGRAREAYPLGAPEASGKSGAQGEEPELLTKLHPAFQTPNSPGSGGFPTGRLA [D259R]: the cAMP reporter score in data set [1] (pH 5.5) was 0.667; in data set [1] (pH 6), 0.163; in data set [1] (pH 6, modulator: ogerin) it was 1.15; in data set [1] (pH 6.5, modulator: ogerin) it was -0.019. Moreover, in data set [2], the surface expression score was -0.439.
The matching figures for MGNITADNSSMSCTIDHTIHQTLAPVVYVTVLVVGFPANCLSLYFGYLQIKARNELGVYLCNLTVADLFYICSLPFWLQYVLQHDNWSHGDLSCQVCGILLYENIYISVGFLCCISVDRYLAVAHPFRFHQFRTLKAAVGVSVVIWAKELLTSIYFLMHEEVIEDENQHRVCFEHYPIQAWQRAINYYRFLVGFLFPICLLLASYQGILRAVRRSHGTQKSRKDQIQRLVLSTVVIFLACFLPYHVLLLVRSVWEASCQFAKGVFNAYHFSLLLTSFNCVADPVLYCFVSETTHRDLARLRGACLAFLTCSRTGRAREAYPLGAPEASGKSGAQGEEPELLTKLHPAFQTPNSPGSGGFPTGRLA [D259Q]: 0.311, -0.411, 0.814, -0.485 and -0.504.
